{
  "source": "the antibiotic and cytotoxicity screens of Wong et al. (2023)",
  "note": "The other results are listed elsewhere or left out.",
  "data": [
    {"test_system": "HepG2", "assay": "cytotoxicity call (relative viability < 0.9)", "conditions": "10 µM", "values": [
      {"smiles": "Cc1noc(C)c1NC(=O)Nc1cccc2c1O[C@@H](CN(C)Cc1ccc(C(F)(F)F)cc1)[C@H](C)CN([C@@H](C)CO)C2=O", "cytotoxicity call": "inactive"},
      {"smiles": "CCOC(=O)CCn1cc(F)c(=O)[nH]c1=O", "cytotoxicity call": "inactive"},
      {"smiles": "C[C@@H]1CN([C@H](C)CO)C(=O)c2cc(NC(=O)Nc3cccc4ccccc34)ccc2O[C@@H](C)CCCCO[C@@H]1CN(C)C(=O)c1ccccc1", "cytotoxicity call": "inactive"},
      {"smiles": "Cn1cnc(S(=O)(=O)N[C@H]2C=C[C@@H](CC(=O)NCC3CC3)O[C@H]2CO)c1", "cytotoxicity call": "inactive"},
      {"smiles": "COc1ccc(S(=O)(=O)N(C)C[C@H]2Oc3ccc(NS(=O)(=O)c4cccs4)cc3CC(=O)N([C@@H](C)CO)C[C@@H]2C)cc1", "cytotoxicity call": "inactive"},
      {"smiles": "O=C(N/N=C/[C@H](O)[C@@H](O)[C@H](O)[C@H](O)CO)c1ccccc1O", "cytotoxicity call": "inactive"},
      {"smiles": "Cc1ccccc1NC(=O)CC(C)C", "cytotoxicity call": "inactive"},
      {"smiles": "CO[C@@H]1CN(C)C(=O)c2cc(NS(=O)(=O)c3ccccc3)ccc2OC[C@H](C)N(C(=O)NC(C)C)C[C@@H]1C", "cytotoxicity call": "inactive"},
      {"smiles": "O=C(C[C@H]1CC[C@@H](NC(=O)CN2CCOCC2)[C@H](CO)O1)NCc1cccc(F)c1", "cytotoxicity call": "inactive"},
      {"smiles": "Nc1nc(N)nc(-c2ccccc2)n1", "cytotoxicity call": "inactive"},
      {"smiles": "NNC(=O)C1[C@H]2CCCC[C@@H]12", "note": "(stereo not given in full)", "cytotoxicity call": "inactive"},
      {"smiles": "CO[C@H](CN(C)C(=O)c1ccc2c(c1)OCO2)[C@H](C)CN([C@@H](C)CO)S(=O)(=O)c1ccc(Cl)cc1", "cytotoxicity call": "inactive"},
      {"smiles": "Cc1noc(C)c1S(=O)(=O)Nc1ccc2c(c1)C(=O)N([C@H](C)CO)C[C@H](C)[C@H](CN(C)S(=O)(=O)c1c(C)noc1C)O2", "cytotoxicity call": "inactive"},
      {"smiles": "COc1ccc(C#Cc2ccc3c(c2)O[C@@H](CN(C)C(C)=O)[C@H](C)CN([C@H](C)CO)S3(=O)=O)cc1", "cytotoxicity call": "inactive"},
      {"smiles": "C[C@H]1CCCCO[C@H](CN(C)CC2CCCCC2)[C@@H](C)CN([C@@H](C)CO)C(=O)c2cc(NC(=O)CCC(F)(F)F)ccc2O1", "cytotoxicity call": "inactive"},
      {"smiles": "C[C@H]1CN([C@@H](C)CO)C(=O)Cc2cc(NC(=O)Nc3ccccc3)ccc2O[C@@H]1CN(C)Cc1ccc(Cl)c(Cl)c1", "cytotoxicity call": "active"},
      {"smiles": "C[C@@H]1CCCCO[C@@H](CN(C)C(=O)C2CCCCC2)[C@@H](C)CN([C@@H](C)CO)C(=O)c2cc(NC(=O)C3CCCCC3)ccc2O1", "cytotoxicity call": "inactive"},
      {"smiles": "COc1ccc2c3c([nH]c2c1)[C@@H](CO)N(Cc1ccc(cc1)Cl)C[C@]13CCN(CC1)Cc1ccccc1", "cytotoxicity call": "active"},
      {"smiles": "C[C@@H]1CN([C@H](C)CO)C(=O)Cc2cc(NC(=O)Nc3ccc(F)cc3)ccc2O[C@@H]1CN(C)Cc1ccc(-c2ccccc2)cc1", "cytotoxicity call": "inactive"},
      {"smiles": "C[C@H](CO)N1C[C@H](C)[C@H](CN(C)C(=O)Cc2ccccc2)OCCCC[C@H](C)Oc2ccc(NC(=O)Nc3ccccc3)cc2C1=O", "cytotoxicity call": "inactive"},
      {"smiles": "C[C@H](CO)N1C[C@H](C)[C@H](CN(C)Cc2ccc(C(F)(F)F)cc2)Oc2ccc(NC(=O)Cn3cnnn3)cc2C1=O", "cytotoxicity call": "inactive"},
      {"smiles": "C[C@@H]1CN([C@@H](C)CO)C(=O)c2cccc(NC(=O)C3CCOCC3)c2O[C@@H]1CN(C)Cc1ccc(Oc2ccccc2)cc1", "cytotoxicity call": "inactive"},
      {"smiles": "COC(=O)[C@@H](N)CS[C@H]1CCCCO1", "cytotoxicity call": "inactive"},
      {"smiles": "C[C@@H]1CN([C@H](C)CO)C(=O)c2c(c3ccccc3n2C)-c2ccccc2CO[C@H]1CN(C)C(=O)Nc1ccc(-c2ccccc2)cc1", "cytotoxicity call": "active"},
      {"smiles": "C[C@@H]1CCCCO[C@@H](CN(C)C(=O)NC2CCCCC2)[C@@H](C)CN([C@@H](C)CO)C(=O)c2cc(NS(=O)(=O)c3ccc(Cl)cc3)ccc2O1", "cytotoxicity call": "inactive"},
      {"smiles": "CCCNC(=O)N(C)C[C@H]1Oc2ncc(-c3ccc(C(=O)N(C)C)cc3)cc2C(=O)N([C@H](C)CO)C[C@@H]1C", "cytotoxicity call": "inactive"},
      {"smiles": "CCCC(=O)Nc1ccc2c(c1)C(=O)N(C)C[C@@H](OC)[C@@H](C)CN(Cc1ccc(-c3ccccn3)cc1)[C@H](C)CO2", "cytotoxicity call": "inactive"},
      {"smiles": "Cc1noc(C)c1S(=O)(=O)Nc1cccc2c1O[C@@H](CN(C)Cc1ccc(-c3ccccc3)cc1)[C@@H](C)CN([C@@H](C)CO)C2=O", "cytotoxicity call": "inactive"},
      {"smiles": "C[C@@H]1CCCCO[C@@H](CN(C)C(=O)CCC(F)(F)F)[C@H](C)CN([C@@H](C)CO)C(=O)c2cc(NC(=O)c3ccccc3)ccc2O1", "cytotoxicity call": "inactive"},
      {"smiles": "C[C@H](CO)N1C[C@H](C)[C@@H](CN(C)CC2CCOCC2)Oc2cc(-c3cccnc3)ccc2S1(=O)=O", "cytotoxicity call": "inactive"},
      {"smiles": "CNC[C@@H]1Oc2ccc(NC(=O)Cn3cnnn3)cc2CC(=O)N([C@@H](C)CO)C[C@@H]1C", "cytotoxicity call": "inactive"},
      {"smiles": "COc1ccc(NC(=O)N(C)C[C@H]2Oc3ccc(NC(=O)Nc4ccc(C(F)(F)F)cc4)cc3C(=O)N([C@@H](C)CO)C[C@@H]2C)cc1", "cytotoxicity call": "inactive"},
      {"smiles": "Cc1ccc(S(=O)(=O)Nc2ccc3c(c2)C(=O)N([C@@H](C)CO)C[C@@H](C)[C@@H](CN(C)S(=O)(=O)c2cccs2)O3)cc1", "cytotoxicity call": "inactive"},
      {"smiles": "FC(F)(F)Oc1ccccc1", "cytotoxicity call": "inactive"},
      {"smiles": "COc1ccccc1NC(=O)N(C)C[C@H]1OCc2ccccc2-c2c(n(C)c3ccccc23)C(=O)N([C@@H](C)CO)C[C@@H]1C", "cytotoxicity call": "inactive"},
      {"smiles": "C[C@@H]1CN([C@H](C)CO)C(=O)c2cc(N(C)C)ccc2O[C@@H](C)CCCCO[C@H]1CN(C)C(=O)Nc1ccc(C(F)(F)F)cc1", "cytotoxicity call": "inactive"},
      {"smiles": "C[C@@H]1CN([C@H](C)CO)C(=O)Cc2cc(NC(=O)Cc3cn(C)c4ccccc34)ccc2O[C@H]1CN(C)Cc1ccc(-c2ccccc2)cc1", "cytotoxicity call": "active"},
      {"smiles": "Cc1noc(C)c1NC(=O)Nc1ccc2c(c1)C(=O)N([C@@H](C)CO)C[C@@H](C)[C@@H](CN(C)CC1CCCCC1)OCCCC[C@H](C)O2", "cytotoxicity call": "inactive"},
      {"smiles": "C=C1CC2C3C=C(C)C4=CC(=O)CCC4(C)C3CCC2(C)C1(OC(C)=O)C(C)=O", "note": "(stereo not given)", "cytotoxicity call": "inactive"},
      {"smiles": "C[C@@H]1CCCCO[C@H](CN(C)Cc2ccc(C(F)(F)F)cc2)[C@H](C)CN([C@H](C)CO)C(=O)c2cc(NS(=O)(=O)c3cn(C)cn3)ccc2O1", "cytotoxicity call": "inactive"}
    ]}
  ]
}
